Hit rate of the full screen: of about 310,000 compounds, about 2,200 (0.71%) showed an effect of 50% or more. The effect is printed as a negative number. This is one part of the list.

Sequence of human ether-à-go-go-related gene (hERG) potassium channel (Q12809 whole entry, looked up): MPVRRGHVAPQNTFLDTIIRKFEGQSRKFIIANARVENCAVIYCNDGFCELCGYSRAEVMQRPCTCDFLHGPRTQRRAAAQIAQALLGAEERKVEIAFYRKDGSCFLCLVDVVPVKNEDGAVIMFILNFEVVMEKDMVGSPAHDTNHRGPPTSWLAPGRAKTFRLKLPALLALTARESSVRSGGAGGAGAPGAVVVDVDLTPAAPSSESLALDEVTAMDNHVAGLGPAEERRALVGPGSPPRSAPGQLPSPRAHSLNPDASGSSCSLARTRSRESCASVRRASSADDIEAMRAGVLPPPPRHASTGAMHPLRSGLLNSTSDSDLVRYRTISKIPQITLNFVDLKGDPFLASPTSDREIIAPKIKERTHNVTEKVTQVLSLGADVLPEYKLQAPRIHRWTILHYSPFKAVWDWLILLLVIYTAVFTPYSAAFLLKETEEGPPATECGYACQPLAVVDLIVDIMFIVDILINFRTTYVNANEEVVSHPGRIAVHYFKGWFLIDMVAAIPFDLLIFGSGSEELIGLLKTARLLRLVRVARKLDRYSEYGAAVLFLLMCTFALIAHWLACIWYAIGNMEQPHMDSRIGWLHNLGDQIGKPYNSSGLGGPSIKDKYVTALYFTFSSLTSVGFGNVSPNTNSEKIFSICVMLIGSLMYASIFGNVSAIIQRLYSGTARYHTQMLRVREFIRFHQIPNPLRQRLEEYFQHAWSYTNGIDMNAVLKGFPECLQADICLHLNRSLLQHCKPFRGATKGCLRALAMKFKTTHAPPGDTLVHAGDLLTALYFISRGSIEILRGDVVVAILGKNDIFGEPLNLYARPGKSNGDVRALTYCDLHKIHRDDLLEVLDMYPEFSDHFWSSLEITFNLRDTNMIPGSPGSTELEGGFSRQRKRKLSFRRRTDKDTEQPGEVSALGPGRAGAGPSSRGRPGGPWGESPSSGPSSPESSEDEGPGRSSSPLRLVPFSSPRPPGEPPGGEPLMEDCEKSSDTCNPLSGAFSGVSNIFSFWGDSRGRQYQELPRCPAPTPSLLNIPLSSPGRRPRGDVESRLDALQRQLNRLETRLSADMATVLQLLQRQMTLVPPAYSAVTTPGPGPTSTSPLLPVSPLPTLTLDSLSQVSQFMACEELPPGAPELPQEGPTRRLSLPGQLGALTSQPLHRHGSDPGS

In the assay the target is human ether-à-go-go-related gene (hERG) potassium channel (human, UniProt Q12809). Nature of the assay: primary screen, population patch clamp on CHO cells stably expressing hERG. The protocol:
Briefly, Chinese hamster ovary (CHO) cells stably expressing the hERG channel were dislodged from tissue culture flasks and dispensed into PPC plates. […] During the recording, background leak currents were estimated by a 100 ms step to -80 mV from an initial holding potential of -70 mV and subtracted from the subsequent current measurement. The campaign was conducted in two phases using slight differences in recording protocol. In the first phase, the initial voltage pulse used a 100 ms step to -30 mV from a holding potential of -70 mV, a 2 s conditioning step to +25 mV, and a 2 s test step to -30 mV. During the second phase of the screen, the potential during the conditioning step was raised to +45 mV. In both phases of the campaign, a secondary voltage pulse was applied using the same parameters as the second phase initial pulse. The initial and secondary pulses were applied in the absence of compound, and upon application of 1 μM and 10 μM test concentrations. Small molecule effects on hERG current density were quantified by […].
Regarding `Cc1cccc(NC(=O)[C@@H](CC(C)C)NC(=O)[C@@H]2Cc3ccccc3CN2)c1`, the “hERG current change (%, negative = inhibition) at 1uM” value was -10.8%. For the molecule `COc1ccc(S(=O)(=O)N2CCCCCC2)cc1NC(=O)c1c2c(nc3ccccc13)CCN(Cc1ccccc1)C2`, the “hERG current change (%, negative = inhibition) at 1uM” value was found to be 2.13%.

With `O=C(CSc1ccc2c(c1)OCCO2)Nc1ccc(Br)cc1`, the “hERG current change (%, negative = inhibition) at 1uM” value came out at 2.11%.

For `Cc1ccc(Nc2nc(N)nc(CSc3nnnn3-c3ccccc3)n2)cc1`, the “hERG current change (%, negative = inhibition) at 1uM” value stood at 2.4%. Next, `COc1ccc(CNC(=O)CC(NC(N)=O)c2ccccc2Cl)cc1OC` (centres unmarked): 13.9%; `CC1Cc2cc(/C(O)=C3/C(=O)C(=O)N(CCCn4ccnc4)C3c3ccc(Br)cc3)ccc2O1` (centres unmarked): 10.6%. As to `Cc1ccccc1NC1=NC(=S)N(c2ccccc2)C12CCOC(C)(C)C2` (centres unmarked), the “hERG current change (%, negative = inhibition) at 1uM” value came to 10.5%. Next, `COCCCn1cc(C(=O)c2cc(Br)ccc2O)cc(C#N)c1=O`: 12.8%. With `CCOc1cc(/C=N/Nc2nc(=O)[nH]nc2C)ccc1O`, the “hERG current change (%, negative = inhibition) at 1uM” value stood at 14.7%. Turning to `Cc1cc(C)n(-c2ccc(C(=O)O)cc2)n1`, the “hERG current change (%, negative = inhibition) at 1uM” value is 11.9%.

With `O=C(O)CC(NS(=O)(=O)Cc1ccccc1)c1cccc([N+](=O)[O-])c1` (centres unmarked), the “hERG current change (%, negative = inhibition) at 1uM” value stood at 14.7%. Next, `Cc1ccc(NC(=O)c2ccco2)c(NC(=O)c2cccs2)c1`: 10.9%. For `O=C(NCC1c2ccccc2CCN1C(=O)CN1CCOCC1)C1CCCCC1` (centres unmarked) the value was 4.11%; for `COCCNC(=S)N/N=C/c1ccccc1C(=O)O`, 2.68%. In the case of `CCOC(=O)c1sc2ncnc(OC)c2c1C`, the “hERG current change (%, negative = inhibition) at 1uM” value came out at 12.9%. For `O=C(Nc1ccc2c(c1)OCCO2)c1ccc(Cl)c(S(=O)(=O)N2CCCCC2)c1` the value was 3.5%; for `CCC(C)(C(=O)NC1CCCCC1)N(Cc1ccco1)C(=O)c1cnccn1` (centres unmarked), -4.04%. With `COc1cccc2c1c(NC(=O)c1cc(C)on1)nn2C`, the “hERG current change (%, negative = inhibition) at 1uM” value amounted to 12.8%.

Consider `C=CCOc1cccc(C(=O)N2CCCC(CCC(=O)NCc3ccccc3F)C2)c1` (centres unmarked), for which the “hERG current change (%, negative = inhibition) at 1uM” value came to 3.54%.

On to `C1COCCO1.CCOc1ccc(N2C(=O)CC(N(CCc3ccc(OC)c(OC)c3)C(=S)Nc3ccccc3)C2=O)cc1` (centres unmarked), for which the “hERG current change (%, negative = inhibition) at 1uM” value was 7.55%. With `Cc1occc1C(=O)N(C)Cc1nc(-c2ccccc2)no1`, the “hERG current change (%, negative = inhibition) at 1uM” value came out at 4.33%. With `NC(=O)N/N=C/c1cccc(OCc2ccc(F)cc2)c1`, the “hERG current change (%, negative = inhibition) at 1uM” value came out at 9.59%. Next, `CN(C)c1nc(N/N=C\c2ccc(Cl)c([N+](=O)[O-])c2)nc(Nc2ccc(F)cc2)n1`: -2.57%. On to `CCOC(=O)/C(C#N)=C/c1c(N2CCN(c3ccccc3)CC2)nc2ccccn2c1=O`, for which the “hERG current change (%, negative = inhibition) at 1uM” value was 1.9%.

Consider `NP(=O)(OCCCc1ccccc1)c1ccccc1` (centres unmarked), for which the “hERG current change (%, negative = inhibition) at 1uM” value stood at 12.5%.

Turning to `CC(C)C(=O)Nc1ccc(NC(=S)NC(=O)c2ccc([N+](=O)[O-])cc2)cc1`, the “hERG current change (%, negative = inhibition) at 1uM” value is -5.14%.

As to `O=C1c2ccccc2C(Nc2ccccc2F)N1c1cccnc1` (centres unmarked), the “hERG current change (%, negative = inhibition) at 1uM” value turned out to be 2.3%. For `CCOc1ccc(NC(=O)N2CC=C(n3c(=O)[nH]c4ccccc43)CC2)cc1` the value was 5.69%; for `Cc1ccc2sc(NNC(=O)c3cc(-c4cccs4)nc4ccccc34)nc2c1C`, 9.54%; for `COc1ccc(OCc2nnc(SCc3ccc(C(=O)O)cc3)o2)cc1`, 16.6%.

Turning to `Cc1cc(NC(=O)CSc2nc3ccccc3c(=O)n2C(C)c2ccccc2)no1` (centres unmarked), the “hERG current change (%, negative = inhibition) at 1uM” value was 8.49%. Next, `CCOc1cccc(C(=O)Nc2ccc(N3CCN(S(C)(=O)=O)CC3)cc2)c1`: 5.55%; `COc1ccccc1N1CCN(C(=O)C(=O)c2c[nH]c3ccccc23)CC1`: 12.9%.

Turning to `O=C(CCC(=O)c1ccc(F)cc1)Nc1cccc(Br)c1`, the “hERG current change (%, negative = inhibition) at 1uM” value came out at 11%. Next, `CN(CC(=O)Nc1ccc(OC(F)(F)F)cc1)C(=O)c1ccc(N2CCCC2=O)cc1`: 3.68%; `COc1ccc(CCn2nc(C)c([N+](=O)[O-])c2C)cc1`: 7.6%; `COc1cc(/C=N/NC(=O)c2cccc([N+](=O)[O-])c2)ccc1OCc1ccccc1`: 4.07%.

As to `CC(OC(=O)c1ccc(O)cc1)C(=O)Nc1cc(C(F)(F)F)ccc1Cl` (centres unmarked), the “hERG current change (%, negative = inhibition) at 1uM” value came out at 7.01%. Next, `COc1ccc(Br)cc1S(=O)(=O)n1c([N+](=O)[O-])cnc1C`: 19%; `COc1ccc(Nc2ccc(C(F)(F)F)cc2[N+](=O)[O-])cn1`: 14.1%; `CC1(NC(=O)CC(c2ccccc2)(c2ccccc2)c2ccccc2)CCN(CCCc2ccccc2)C1=O` (centres unmarked): 14.7%. For `Brc1ccc(-n2cc(-c3ccccc3)c3c(NN4CCOCC4)ncnc32)cc1` the value was 4.71%. For `C=C(C)CNC(=S)NNC(=O)CCn1c2ccc(Cl)cc2c2cc(Cl)ccc21` the value was 5.97%.

Take `O=C(OCC(=O)N(CCc1ccccc1)Cc1ccccc1)c1ccccc1O`: the “hERG current change (%, negative = inhibition) at 1uM” value is 10.1%.

Source of the values: publication PMC4336329 (PLoS ONE, 2015).
